Source: ChEMBL document CHEMBL4888484, “Replenishing the malaria drug discovery pipeline: Screening and hit evaluation of the MMV Hit Generation Library 1 (HGL1) against asexual blood stage Plasmodium falciparum ,using a nano luciferase reporter read-out” (2022)
In all, about 150,000 compounds went through this assay and about 540 (0.36%) showed an effect of 50% or more. This is one part of the list.

System: Plasmodium falciparum
Assay: Primary screen in NF54 nanoGlo assay, in single point, at 2uM, 72h; a lower Z score goes with more inhibition
Type: functional, Erythrocyte
Settings: timepoint 72 hour

Structure (SMILES) | % Inhibition [%] | Z score
Cc1ccc([C@H](CNc2ccc3cc[nH]c3n2)N(C)C)o1 | -10 | 1.47
Cc1cnc(NC[C@H]2CC[C@H](CO)CC2)nc1N(C)C | -7 | 1.08
CCc1nnsc1-c1nc(C2CC2)n[nH]1 | -10 | 1.96
Clc1cccc(-n2cc(-c3noc(-c4cccs4)n3)nn2)c1 | -16 | 3.05
O=C1NC2(CCN(S(=O)(=O)c3ccc(F)c(F)c3)CC2)N=C1c1cccs1 | -10 | 0.96
CCCCn1ccnc1C1CCN(C(=O)c2ccccc2-c2nnn[nH]2)CC1 | -4 | 0.46
C[C@H](Nc1nc2nonc2nc1N)c1ccccc1 | -8 | 1.04
CCNC(=O)Cn1ccc(NC(=O)[C@@H]2CCCc3ccccc32)n1 | -12 | 1.63
CCCCNC(=O)CCS(=O)(=O)c1ccc(Cl)cc1 | 1 | -0.14
Cc1nn(C)c2nc(N3CCS(=O)(=O)CC3)sc12 | -6 | 1.22
NC(=O)[C@H]1CCN(C(=O)c2ccc3noc(-c4ccccc4)c3c2)C1 | 9 | -1.18
C=CCNC(=O)c1cccnc1Oc1cccc(NS(=O)(=O)c2ccccc2)c1 | -4 | 0.75
CC1CN(C(=O)C2CCCN(C(=O)c3ccc(Cl)cc3)C2)CC(C)O1 (centres undefined) | -11 | 1.4
Cc1cnc(-n2cnnc2)c(-c2cn[nH]c2)c1 | 2 | -0.27
Cc1nnc(CN2CCC[C@H](Cn3ccnc3C)C2)s1 | -16 | 1.99
CC1=NO[C@](C)(C(=O)NCC2(COc3ccccc3)CC2)C1 | -11 | 1.39
CC(=O)Nc1nnc(-c2cc(Cl)sc2Cl)o1 | -4 | 0.72
O=C(CS(=O)(=O)c1ccc(Cl)cc1)N1CCOCC1 | -6 | 0.81
Cc1ccnc(NC(=O)c2cccnc2O)c1 | -12 | 2.3
O=C(Cc1ccccc1)N1CCN(c2cc(N3CCCC3)ncn2)CC1 | -8 | 0.94
CO[C@@H](CS(=O)(=O)Nc1c(O)cc(Br)cc1Cl)C1CC1 | -9 | 1.25
O=C(Cn1cnnn1)Nc1ccc(-c2ccc(Cl)s2)cn1 | -15 | 1.36

Structure (SMILES) | % Inhibition [%] | Z score
O=C(c1nc2ccccn2c1F)N1CCC[C@H]1c1nc(-c2ccccc2)no1 | 5 | -0.98
CN(Cc1ccccc1)Cc1cn([C@H]2CO[C@H]3[C@@H]2OC[C@@H]3NC(=O)c2ccc(C(F)(F)F)cc2)nn1 | 13 | -1.46
Cc1cn2cc(-c3ccccc3)c(C#N)c2nc1C | -14 | 2.08
Cc1cnc2nc(C(=O)N3CCOC[C@@]3(C)C3CC3)nn2c1 | 0 | 0.08
CC[C@@H]1C(=O)N(c2nc(C)cc(C)n2)N=C1C | -7 | 0.96
CCn1c(-c2cc(NC(=O)c3cccs3)[nH]n2)c(C)c2ccccc21 | 8 | -1.07
Cc1cc(NCc2nncn2C)ccc1C(=O)OC(C)(C)C | -8 | 0.86
CCOC(=O)C(C)CNC(=O)C1CCN(c2ccccc2Cl)C1 (centres undefined) | 0 | 0.08
CO[C@H]1CCN(c2ccc(NC(=O)C3CCN(S(C)(=O)=O)CC3)cc2)C1 | -23 | 2.96
CN(Cc1ccccc1Cn1cccn1)[C@@H]1CCCC[C@@H]1O | -1 | 0.12
N#Cc1ccc([C@@H](O)CN2CCCOCC2)cc1 | -4 | 0.71
COc1ccc(-c2noc(-c3c[nH]c4ccc(F)cc4c3=O)n2)cc1OC | -6 | 0.91
CCCc1nc(C(=O)N(Cc2ccccn2)C2CCCCC2)cs1 | -15 | 1.76
CC(=O)N1CCCN(S(=O)(=O)N(C)C2CCCCC2)CC1 | -3 | 0.51
CCN(Cc1ccc(OC)c(F)c1)S(=O)(=O)c1ccc(S(=O)(=O)N2CCCC2)cc1 | -1 | 0.08
Cc1n[nH]c([C@@H]2CN(Cc3nc(C)c(C)o3)CCO2)n1 | 5 | -0.51
CN(C)C(N)=NCc1ccc(C2CC2)cc1 | 7 | -1.15
CCCc1nc(N2C[C@@H]3[C@H](C2)[C@H]2CC[C@@H]3O2)no1 | -7 | 1.04
Cc1ccoc1C(=O)N1CCCNC(=O)C1 | -17 | 1.87
Cc1cccc2c(=O)n(CC(=O)Nc3ccccc3Oc3ncc(Cl)cc3Cl)cnc12 | 16 | -3.09
C[C@@H](Cc1ccsc1)NS(=O)(=O)CC1CCOCC1 | -9 | 1.38
Cc1cccc(Nc2nc(N)nc(N)c2S(=O)(=O)c2ccc(Cl)cc2)c1 | 12 | -1.38

Structure (SMILES) | % Inhibition [%] | Z score
COc1ccccc1NC(=O)c1oc2ccccc2c1NC(=O)c1ccc2ccccc2c1 | -1 | 0.17
O=C(Nc1c(C(=O)Nc2ccc3c(c2)OCCO3)oc2ccccc12)c1cc2ccccc2o1 | -3 | 0.51
O=C(NC[C@H]1CCCN1c1ncccn1)C1CCCC1 | 0 | 0.02
O=C(c1c[nH]c(=O)c(C(F)(F)F)c1)N1CCC[C@H](OCC2CC2)C1 | 11 | -1.06
C#Cc1cccc(NC(=O)N2CC(S(=O)(=O)N3CCN(C(=O)OC(C)(C)C)CC3)C2)c1 | -8 | 1.11
COc1cccc(-c2nc(NCc3cccnc3)nc3nn(-c4cccc(C)c4)c(N)c23)c1 | -1 | 0.08
CC(C)C(C)(NC(=O)C1CCCO1)c1ccc(Br)cc1 (centres undefined) | -5 | 1.07
CN(Cc1cnccn1)c1cc(C2CC(O)C2)nc(N)n1 (centres undefined) | -1 | 0.11
Cc1cccc(CNC(=O)c2ccc(-c3ccsc3)nc2)c1 | 3 | -0.35
CCc1nc([C@H](C)NC(=O)NC2CCN(c3cc(C)nc(C)n3)CC2)cs1 | 5 | -0.49
Cc1ccccc1-c1nc(C)c(CNC(=O)COc2cccc(C(F)(F)F)c2)s1 | -4 | 0.76
CCN(CC(F)(F)F)C(=O)C(=O)Nc1cc(C)ccc1F | 5 | -0.61
CC1(C)COC(=O)[C@H]1OCN1CCCC1=O | 42 | -5.43
CN(CCN(C)C1CCCC1)C(=O)[C@@H](O)Cc1ccccc1 | -3 | 0.44
OC1CCC(NCc2cc(Br)c3c(c2)OCO3)CC1 (centres undefined) | -6 | 1.23
COc1ccccc1C(C)CC(=O)N1CCCC[C@@H]1C(=O)O (some centres undefined) | 8 | -1.09
COc1cc2c(cc1CNc1cc([C@H]3CCOC3)nc(N)n1)OCCO2 | 0 | -0.04
NC1CC(c2cc(N3CCC(C(=O)NC4CCCCCC4)CC3)ncn2)C1 (centres undefined) | -3 | 0.72
CCCCNCCOc1ccc(Cl)cc1 | 0 | 0.05
O=C(C[C@@H](c1ccccc1O)N1CCCCC1)N1CCCCC1 | -6 | 0.93
Cc1ncn(CC(=O)N2CCC[C@H](c3ccn(C)n3)C2)c(=O)c1C | 5 | -0.57
CCCN1CC2(CCN(Cc3cc(C)cc(C)c3)CC2)C[C@H]1C(=O)O | -2 | 0.32

Structure (SMILES) | % Inhibition [%] | Z score
COc1cccc(NC(=O)NC2CCC(c3n[nH]c(N)n3)CC2)c1 (centres undefined) | -6 | 0.72
COC(=O)[C@@H](C)CN(C)c1ncc(Cl)cn1 | -8 | 1.08
COc1ccccc1C(=O)Nc1ccc(-c2cc[nH]n2)cc1 | -5 | 1.01
O=C(Nc1ccccc1)OC1CCCC(NS(=O)(=O)Cc2ccccc2)C1 (centres undefined) | -19 | 3.67
CCOC(=O)c1cnc2ccnn2c1C1CC1 | 32 | -3.67
CC[C@H]1CN(C)CCN1c1cc(-c2ccccc2)nc2ncnn12 | -7 | 1.39
CC(C)OC1CC(N2CC[C@H](NC(=O)NC3CC3)C2)C1 (some centres undefined) | 7 | -1.11
c1cncc(Oc2cccc(OCc3noc4c3CCCC4)c2)c1 | -5 | 0.68
CO[C@@H]1C[C@@H](c2ncc[nH]2)N(C(=O)c2cccc(F)c2O)C1 | -10 | 1
COc1cccc(-c2noc(-c3ccoc3)n2)c1 | -8 | 0.98
Cc1ccc(/N=C2/C(=N\c3ccc(C)cc3)N(c3ccccc3)CCCN2c2ccccc2)cc1 | -9 | 1.6
c1ccc([C@@H]2NCCc3c2[nH]c2ccccc32)cc1 | 0 | 0.05
O=c1cccc(-c2nc(-c3ccco3)no2)[nH]1 | -3 | 0.25
O=S(=O)(NC1(Cc2ccccc2)CC1)N1CCCC1 | 0 | -0.08
CC(C)=CCN1C(=O)[C@@H]2CC[C@H]1CN(C(=O)c1nc3ncccn3n1)C2 | -1 | 0.21
Cn1cc([C@@H]2CCCN2c2cccc(C(=O)O)n2)cn1 | -2 | 0.39
Nc1nc(CNCc2ccc3cccc(Cl)c3n2)cs1 | 6 | -0.76
CC1CN(Cc2ccccc2)CC1NC(=O)c1ccon1 (centres undefined) | -1 | 0.1
C=CCn1ncc(CN2CCC[C@H](c3cc(O)ncn3)C2)c1C | -5 | 0.5
COc1ccc(OC)c2c1cc(C(=O)Nc1nnc(C)s1)n2C | -21 | 2.57
COC[C@@]12CCN(S(=O)(=O)Cc3ccccc3)C[C@@H]1CN(S(C)(=O)=O)C2 | -19 | 2.25
